According to PubChem BioAssay (Tox21):
This list was built around the results that the source calls inconclusive (neither active nor inactive); the mix of calls is not that of the screen. For some of these results: A potency beside an inconclusive call is a rough fit, not a confirmed value. Calls of active or inactive are those of the source. Unless noted, calls follow the shape of the dose curve; as a rule, active = well fitted cell-killing curve with a large enough effect in the repeat runs; inconclusive = weak or mixed curves, or effect the other way; inactive = no such curve, though single readings can be large or run the other way.

What was measured:
[1] = qHTS assay to identify small molecule antagonists of the vitamin D receptor (VDR) signaling pathway - cell viability counter screen (AID 743225); settings: VDR-bla HEK293T viability, CellTiter-Glo luminescence, 16 h; viability change, negative = cytotoxic: at 61 µM (top of the series); also: potency is read from the fitted curve at half-maximal effect; nearly all actives have a fitted effect of over 50% in size
In short: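 HEK293T VDR-bla; cpd + 1a,25-(OH)2D3 3 nM final, 16 h 37C/5% CO2; B/G FRET substrate 2 h RT; then CellTiter-Glo 30 min RT, luminescence.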

[2] = qHTS assay to identify small molecule agonists of the NFkB signaling pathway (AID 1159509; active = well fitted curve in the direction sought with a large enough effect in the signal ratio in the repeat runs, not every such curve was filed as active; inconclusive = weak or mixed curves, or a change in a side signal; inactive = no such curve, though single readings can be large or run the other way; the % refers to the signal ratio; also: potency is read from the fitted curve at half-maximal effect; as to activation: % is scaled to controls: 0 for no effect and ±100 for the full control effect); settings: NFkB-bla ME-180 cells, beta-lactamase FRET ratio, 5 h; activation: at 61 µM (top of the series) unless noted
In short: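 Beta-lactamase reporter assay run in quantitative high-throughput format on an NF-kB-responsive ME-180 line, with 5 hr compound treatment and a FRET-based blue/green fluorescence readout.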

[3] = qHTS assay to identify small molecule agonists of the endoplasmic reticulum stress response signaling pathway (AID 1159516; active = well fitted activation curve with a large enough effect in the signal ratio in the repeat runs, not every such curve was filed as active; inconclusive = weak or mixed curves, or effect the other way; the % refers to the signal ratio; also: % is scaled to controls: 0 for no effect and ±100 for the full control effect); settings: ESRE-bla HeLa, ER stress beta-lactamase reporter, 5 h; activation: at 61 µM (top of the series) unless noted
In short: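 For this screen, HeLa cells stably carrying beta-lactamase under the ER stress response element received test compounds, positive controls or DMSO for 5 hr at 37 C; B/G FRET substrate was then added and dual-wavelength emission recorded.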

[4] = qHTS assay to identify small molecule agonists of the farnesoid-X-receptor (FXR) signaling pathway - cell viability counter screen (AID 743218); settings: FXR-bla HEK293T viability, CellTiter-Glo luminescence, 16 h; viability change, negative = cytotoxic: at 62.6 µM (top of the series) unless noted; also: nearly all actives have a fitted effect of over 45% in size; also: potency is read from the fitted curve at half-maximal effect; as to viability change, negative = cytotoxic: % is scaled to controls: 0 for no effect and ±100 for the full control effect
In short: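 Same-well cytotoxicity check on FXR-UAS-bla HEK 293T cells: 5 h attachment, 16 h compound at 37 C, CellTiter-Glo luminescence read at room temperature after 30 min.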

[5] = target: Bile acid receptor (Homo sapiens) (UniProt Q96RI1); assay: qHTS assay to identify small molecule agonists of the farnesoid-X-receptor (FXR) signaling pathway (AID 743220; active = well fitted activation curve with a large enough effect in the signal ratio in the repeat runs, not every such curve was filed as active; inconclusive = weak or mixed curves, or effect the other way; the % refers to the signal ratio; also: % is scaled to controls: 0 for no effect and ±100 for the full control effect); settings: HEK293T FXR-UAS-bla, beta-lactamase FRET ratio, 16 h; activation: at 62.6 µM (top of the series) unless noted
In short: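 FXR-UAS-bla HEK 293T cells carrying a UAS-driven beta-lactamase reporter were plated for 5 h at 37C/5% CO2, then exposed to DMSO-dissolved Tox21 10K compounds for 16 h at 37C. A LiveBLAzer B/G FRET substrate was loaded for 2 h at room temperature before fluorescence reading.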

[6] = qHTS assay to identify small molecule antagonists of the farnesoid-X-receptor (FXR) signaling pathway - cell viability counter screen (AID 743221; active = well fitted cell-killing curve with a large enough effect in the repeat runs, not every such curve was filed as active; inconclusive = weak or mixed curves, or effect the other way; inactive = no such curve, though single readings can be large or run the other way; also: potency is read from the fitted curve at half-maximal effect; nearly all actives have a fitted effect of over 50% in size); settings: FXR-bla HEK293T viability, CellTiter-Glo luminescence, 16 h; activity change, negative = cytotoxicity: at 62.6 µM (top of the series) unless noted
In short: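 Multiplexed counter screen: viability of FXR-bla HEK 293T cells under agonist stimulation by chenodeoxycholic acid (50 uM, final) and test compound for 16 h at 37 C, measured by CellTiter-Glo luminescence in the reporter wells.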

[7] = target: Vitamin D3 receptor (Homo sapiens) (UniProt P11473); assay: qHTS assay to identify small molecule antagonists of the vitamin D receptor (VDR) signaling pathway (AID 743223; active = well fitted inhibition curve with a large enough effect in the signal ratio in the repeat runs, not every such curve was filed as active; inconclusive = weak or mixed curves, or effect the other way; inactive = no such curve, though single readings can be large or run the other way; the % refers to the signal ratio; also: potency is read from the fitted curve at half-maximal effect); settings: VDR-UAS-bla HEK293T, beta-lactamase FRET ratio, 16 h; activity change, negative = inhibition: at 61 µM (top of the series) unless noted
In short: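 Cells carrying a VDR-driven beta-lactamase reporter (VDR-bla) were co-treated with compound and 3 nM final 1alpha,25-dihydroxyvitamin D3 for 16 h at 37C; reporter activity was measured as FRET substrate fluorescence after 2 h at room temperature.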

[8] = qHTS assay to identify small molecule agonists of the vitamin D receptor (VDR) signaling pathway - cell viability counter screen (AID 743224); also: potency is read from the fitted curve at half-maximal effect; nearly all actives have a fitted effect of over 50% in size
In short: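 Counter screen for cytotoxicity: VDR-bla cells at 2,000 cells/well, 16 h compound exposure, then CellTiter-Glo luminescence after the beta-lactamase measurement.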
Tags tell the direction and shape of the fitted curve or compound fluorescence and quenching.

UniProt P11473, sequence (P11473 whole entry, looked up): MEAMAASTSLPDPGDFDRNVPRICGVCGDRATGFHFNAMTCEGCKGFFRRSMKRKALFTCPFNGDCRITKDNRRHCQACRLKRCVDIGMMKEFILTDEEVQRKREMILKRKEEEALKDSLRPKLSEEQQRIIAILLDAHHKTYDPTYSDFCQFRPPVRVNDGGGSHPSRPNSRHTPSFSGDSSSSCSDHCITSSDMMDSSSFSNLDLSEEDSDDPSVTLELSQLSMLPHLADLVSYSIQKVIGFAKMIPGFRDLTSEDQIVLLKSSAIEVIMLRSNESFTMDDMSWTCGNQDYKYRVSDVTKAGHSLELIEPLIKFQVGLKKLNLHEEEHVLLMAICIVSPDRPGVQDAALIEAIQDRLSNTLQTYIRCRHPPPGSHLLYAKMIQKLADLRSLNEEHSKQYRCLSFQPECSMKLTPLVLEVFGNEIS
UniProt Q96RI1, sequence (Q96RI1 whole entry, looked up): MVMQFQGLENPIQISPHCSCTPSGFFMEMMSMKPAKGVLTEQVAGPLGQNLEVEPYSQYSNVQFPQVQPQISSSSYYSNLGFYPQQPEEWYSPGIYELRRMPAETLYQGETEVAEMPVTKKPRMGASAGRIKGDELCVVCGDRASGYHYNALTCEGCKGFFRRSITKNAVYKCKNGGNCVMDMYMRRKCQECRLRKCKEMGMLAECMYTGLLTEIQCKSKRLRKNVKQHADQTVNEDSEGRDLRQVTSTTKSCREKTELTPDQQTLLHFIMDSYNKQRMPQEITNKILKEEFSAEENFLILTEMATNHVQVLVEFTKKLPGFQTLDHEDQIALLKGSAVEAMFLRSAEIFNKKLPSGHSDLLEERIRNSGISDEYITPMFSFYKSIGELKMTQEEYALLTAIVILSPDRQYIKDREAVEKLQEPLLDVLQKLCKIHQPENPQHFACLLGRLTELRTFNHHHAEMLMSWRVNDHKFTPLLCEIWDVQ

With CC(C)=CC1C(C(=O)OC(C#N)c2cccc(Oc3ccccc3)c2)C1(C)C (configuration not stated) the Potency [1] was inconclusive: 49 µM [cytotoxic, partial curve, poor fit], the Potency [2] was inconclusive: 54.9 µM [falling, single point] and the activation [3] was inconclusive: 13.2%.
For c1cc[c]([Hg][c]2ccccc2)cc1, the Potency [4] was inconclusive: 0.195 µM [rising, full curve], the activation [5] was inconclusive: 7.92% and the Potency [2] was “inactive”.
For NCCCNCCCN, the Potency [4] was inconclusive: 62.6 µM [cytotoxic, single point], the activation [5] was inconclusive: 6.55% [at 81.1 µM] and the Potency [6] was inconclusive: 55.8 µM [falling, single point]. For the same compound, the Potency [7] was inconclusive: 62.6 µM [rising, single point], the Potency [8] was inconclusive: 55.8 µM [cytotoxic, single point] and the Potency [1] was active: 49.7 µM. For the same compound, the Potency [2] was “inactive”.
With CO/N=C(\C(=O)OC)c1ccccc1CO/N=C(\C)c1cccc(C(F)(F)F)c1 the Potency [4] was inconclusive: 34.7 µM [cytotoxic, partial curve, poor fit], the Potency [6] was inconclusive: 24.5 µM and the Potency [7] was inconclusive: 4.36 µM [rising, full curve, poor fit]. For the same compound, the Potency [8] was inconclusive: 19.5 µM [cytotoxic, partial curve], the Potency [1] was inconclusive: 5.49 µM [cytotoxic, full curve] and the Potency [2] was inconclusive: 54.9 µM.
In the case of Oc1ccc(-c2ccccc2)cc1, the viability change, negative = cytotoxic [4] is reported as inconclusive: -0.0808%, the activity change, negative = inhibition [7] is reported as inconclusive: 4.03% and the Potency [2] is reported as inconclusive: 61.7 µM [falling, single point].
